In PubChem BioAssay AID624170 (National Center for Advancing Translational Sciences (NCATS), 2012):
The whole screen tested about 410,000 compounds, of which about 850 (0.21%) were called active. The shares of active, inactive and inconclusive entries below differ from those in the screen. Calls come from the whole dose curve; as a rule, active = well fitted inhibition curve with a large enough effect; inconclusive = small, poorly fitted or top-dose-only effect, or another doubt; inactive = no such curve, though single readings can be large or run the other way. Potencies of inconclusive entries are left out as doubtful fits.

molecular target: Glutaminase kidney isoform, mitochondrial (Homo sapiens) (UniProt O94925); assay: qHTS for Inhibitors of Glutaminase (GLS); details: GLS enzymatic activity, qHTS titration; series mostly up to 45.5 µM
Chain of UniProt O94925 (O94925 whole entry, looked up, canonical isoform): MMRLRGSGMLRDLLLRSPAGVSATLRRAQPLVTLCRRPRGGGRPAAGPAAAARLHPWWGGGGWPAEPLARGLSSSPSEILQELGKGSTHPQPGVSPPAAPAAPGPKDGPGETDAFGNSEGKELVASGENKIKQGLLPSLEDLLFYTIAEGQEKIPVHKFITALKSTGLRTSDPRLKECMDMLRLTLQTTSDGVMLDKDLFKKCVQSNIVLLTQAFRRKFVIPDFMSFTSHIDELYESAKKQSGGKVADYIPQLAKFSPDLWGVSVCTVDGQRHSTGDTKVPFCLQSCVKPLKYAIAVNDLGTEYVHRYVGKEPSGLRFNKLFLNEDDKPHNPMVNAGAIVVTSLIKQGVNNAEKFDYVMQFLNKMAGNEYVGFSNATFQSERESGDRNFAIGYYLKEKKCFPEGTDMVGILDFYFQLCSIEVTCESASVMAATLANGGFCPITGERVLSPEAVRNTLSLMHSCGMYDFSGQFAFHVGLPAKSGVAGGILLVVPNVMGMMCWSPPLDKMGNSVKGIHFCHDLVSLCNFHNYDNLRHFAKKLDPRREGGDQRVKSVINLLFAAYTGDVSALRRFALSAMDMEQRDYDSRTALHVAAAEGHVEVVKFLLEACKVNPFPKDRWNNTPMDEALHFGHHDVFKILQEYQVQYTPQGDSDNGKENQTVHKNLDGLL
Method in brief: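 Two-point fluorescence kinetic (t0, 30 min RT) for hKGA; glutamate detected via glutamate oxidase–HRP–Amplex Red. Substrate: 1 mM L-glutamine solution; buffer 45 mM KH2PO4, pH 8.2.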
Potency is the fitted concentration of half-maximal effect; tags give direction and shape of the fitted curve.

SMILES	Potency
O=C1/C(=C/c2ccncc2)SC(=S)N1Nc1ccccc1	active: 8.91 µM
Cc1cccc(N2CCN(C(c3ccc(F)cc3)c3nnc(-c4ccccc4)o3)CC2)c1C (stereo not given)	inactive
S=c1nc2[nH]c3ccccc3c2n[nH]1	inconclusive [inhibitor, single point]
CC(C)n1cc(/C=C/c2cc[n+](C)cc2)c2ccccc21	inactive
COc1ccc(C(=O)Nc2nc3ccccc3s2)c(OC)c1	inconclusive [inhibitor, single point]
CCCC1C2CN(C(C)C)CC=C2C(C#N)=C(N)C1(C#N)C#N (stereo not given)	inconclusive [inhibitor, single point]
O=S(=O)(Nc1ccc(Cl)cc1)c1ccc2c(c1)CCO2	inactive
CC(NC(=O)c1ccccc1Cl)C1CC2CCC1C2 (stereo not given)	inconclusive [inhibitor, single point]
O=C1CC(c2ccc(Cl)cc2)CC(=O)C1CS(=O)(=O)c1ccccc1 (stereo not given)	inconclusive [inhibitor, single point]
O=C1Oc2ccccc2C(=O)/C1=C/N1CCN(c2ccccc2F)CC1	inconclusive [inhibitor, single point]
COc1ccc(-c2nnc(SCC(=O)NCc3ccccc3)nc2-c2ccc(OC)c(OC)c2)cc1OC	inactive
O=C1CC(c2ccco2)CC(O)=C1C=Nc1cc(Cl)ccc1O (stereo not given)	inconclusive [inhibitor, single point]
CN(C)S(=O)(=O)c1cccc(NC(=O)COC(=O)C2(c3ccccc3F)CCCC2)c1	inconclusive [inhibitor, full curve]
C=CCNC(=O)CN1C(=O)C2C3c4ccccc4C(c4ccccc43)C2C1=O (stereo not given)	inconclusive [inhibitor, single point]
COCOCCn1cc(CN2CCS(=O)(=O)N(Cc3ccc(-c4ccc(OC)nc4)cc3)C(C(C)C)C2=O)nn1 (stereo not given)	inconclusive [inhibitor, partial curve]
C=CCn1c(-c2cnn(-c3ccccc3)c2N)n[nH]c1=S	inconclusive [inhibitor, partial curve]
COc1cc(/C=N/NC(=O)C(=O)N2CCCC2)ccc1O	inconclusive [inhibitor, single point]
Cn1c(=O)n(CCCOc2ccc(Cl)cc2)c2ccccc21	inconclusive [inhibitor, single point]
CCOc1cc(/C=C(/C#N)C(=O)Nc2ccc(OC)cc2)ccc1OCc1ccc(C(=O)O)cc1	inconclusive [inhibitor, single point]
CCCSc1nc2cc(C)c(C)cc2n1CC(O)CO (stereo not given)	inactive
COc1ccccc1N1CCNC(C)C1=O (stereo not given)	inconclusive [inhibitor, single point]
Cc1nc2cccnc2n1C1CCN(S(=O)(=O)c2ccc(C(C)C)cc2)CC1	inactive
Cc1cccc(-n2ncc(C(=O)NCc3ccco3)c2C2CCN(C(=O)OC(C)(C)C)CC2)c1	inactive
COc1cc(NS(=O)(=O)c2ccc(NC(=O)c3ccc(C(C)=O)cc3)cc2)nc(OC)n1	inactive

SMILES	Potency
Cc1ccc(/C(C#N)=C\c2ccc(N3CCOCC3)o2)cc1	inconclusive [inhibitor, partial curve]
C#CCOCCOCCOCCNc1nc(N2CCN(C(=O)CCCCCCCCCCNC(=O)Cn3cc(C[C@@H](C)O)nn3)CC2)nc(N2CCN(C(=O)CCCCCCCCCCNC(=O)[C@H](CCCN=C(N)N)n3cc(C[C@@H](C)CC)nn3)CC2)n1	inconclusive [inhibitor, single point]
COc1ccccc1N1CCN(c2ncnc3onc(C)c23)CC1	inconclusive [inhibitor, partial curve]
CCOC(=O)C1=C(C)NC2=C(C(=O)c3ccccc32)C1c1ccc([N+](=O)[O-])o1 (stereo not given)	inconclusive [inhibitor, single point]
CC1CCCCN1CCn1c(=S)[nH]c2cc3c(cc2c1=O)OCO3 (stereo not given)	inconclusive [inhibitor, single point]
CCOC(=O)CNC(=O)C1CCN(S(=O)(=O)c2ccc(-c3nn[nH]n3)cc2)CC1	inactive
Cc1oc2ncn(C)c(=O)c2c1C(=O)NCc1ccccc1	inconclusive [inhibitor, partial curve]
O=C(O)CCN1C(=O)/C(=C\c2ccc(-c3nc4ccccc4s3)o2)SC1=S	inconclusive [inhibitor, single point]
COc1cccc(CN2CCc3nc(N4CCN(C)CC4)ncc3C2)c1	inactive
Cc1ccc(C)n1/N=C1/NC(=O)CS1	active: 10 µM
Cc1ccc2c(c1)c(-c1csc(N)n1)c(C)n2C	inconclusive [inhibitor, single point]
COc1ccccc1CNC(=O)c1cnn2c(C(F)F)cc(C)nc12	inconclusive [inhibitor, single point]
Cc1cc(OCC(=O)N2CCc3ccccc3C2)c(C)cc1Br	inconclusive [inhibitor, partial curve, poor fit]
Cc1cc(N2C(=O)C(O)=C(C(=O)c3ccc(C)o3)C2c2ccc(OCc3ccccc3)cc2)no1 (stereo not given)	inconclusive [inhibitor, single point]
CN1CCc2c(sc3nc(SCC(=O)N4CCOCC4)nc(N)c23)C1	inconclusive [inhibitor, single point]
CC1(C)CC2(CC(c3ccccc3F)c3ccc(O)c(O)c3O2)NC(=S)N1 (stereo not given)	inconclusive [inhibitor, full curve]
CCOc1ccc2[nH]c(=O)c(CN(Cc3cccs3)C(CC)c3nnnn3C(C)(C)CC)cc2c1 (stereo not given)	inconclusive [inhibitor, single point]
CCOC(=O)c1cccc2c1N[C@@H](c1ccc(F)cc1)[C@H]1CC=C[C@@H]21	inconclusive [inhibitor, single point]
O=c1cc(O)c2sc(Nc3ccc(F)c(Cl)c3)nc2[nH]1	inconclusive [inhibitor, single point]
COc1ccc(CN2CCNC(=O)C2CC(=O)NC2CCCC2)c(C)c1C (stereo not given)	inconclusive [inhibitor, single point]
O=C1C(F)=CC(COC(c2ccccc2)(c2ccccc2)c2ccccc2)OC1n1cc(F)c(=O)[nH]c1=O (stereo not given)	inconclusive [inhibitor, single point]
Cc1ccccc1/C=N/n1c(C2CCCCC2)n[nH]c1=S	inconclusive [inhibitor, partial curve]
COc1ccc(CCn2c(-n3nc(C)cc3C)nc3c2c(=O)[nH]c(=O)n3C)cc1	inconclusive [inhibitor, single point]
CC1=Nc2cc(C(=O)NCCc3ccc(Cl)cc3)ccc2Sc2c(C)ccc(C)c21	inactive

SMILES	Potency
COc1cccc(Cn2c3ccc(NC(=O)CCc4ccc(F)cc4)cc3c(=O)n2C)c1	inactive
O=S(=O)(Nc1ccc(S(=O)(=O)Nc2cccc3ccccc23)cc1)c1ccccc1	inconclusive [inhibitor, single point]
NC(=O)CSC1=Nc2ccccc2C2=NC(c3ccccc3)C(=O)N12 (stereo not given)	inactive
O=C(NCCCN1CCOCC1)C1(c2ccccc2)CCOCC1	inactive
CCCc1nn(C)c2c(=O)[nH]c(-c3ccccc3OCC)nc12	inactive
Cn1c(Oc2ccc(Cl)cc2)nc2c1c(=O)n(Cc1ccc(F)cc1)c(=O)n2C	inactive
COc1ccc(C=C2C(=O)OC(C)(C)OC2=O)cc1OC	inactive
C[C@H]1CN([C@@H](C)CO)C(=O)c2cc(Br)cnc2O[C@H]1CN(C)C(=O)C1CCC1	inactive
O=C(Oc1ccccc1C(=O)Nc1ccccc1)c1ccc(Br)c([N+](=O)[O-])c1	inactive
c1ccc2c(c1)Nc1ccncc1S2	active: 10 µM
O=C(CSc1nnc(-c2ccoc2)o1)N1CCOCC1	inconclusive [inhibitor, single point]
Cc1ccc(-n2nc(C(=O)N3CCN(c4cccc(C(F)(F)F)c4)CC3)c3c4ccccc4n(C)c3c2=O)cc1	inactive
O=C(/C=C/c1ccc([N+](=O)[O-])cc1)c1cccnc1	inactive
O=C(NNC(=S)NC(=O)c1ccccc1)c1cccc([N+](=O)[O-])c1	inconclusive [inhibitor, single point]
Fc1ccccc1NC(=S)NCCc1ccccc1	inconclusive [inhibitor, single point]
CCN(C(=O)c1cc2c(=O)oc3ccc(C)cc3c2s1)c1ccccc1F	inactive
COc1ccc(Cc2nc(=S)[nH][nH]2)cc1Br	inactive
Nc1nc(NCc2ccco2)nc(Nc2ccccc2)c1[N+](=O)[O-]	inconclusive [inhibitor, single point]
Cc1cccc(C(=O)Nc2sc(-c3ccccc3)cc2C(=O)O)c1	inconclusive [inhibitor, single point]
O=C1/C(=C/c2ccc(N3CCOCC3)o2)SC(=Nc2ccccc2)N1CCc1c[nH]c2ccccc12	inconclusive [inhibitor, partial curve]
Cc1csc(NC(=O)/C=C/c2ccc(C)o2)n1	inactive
O=C(O)c1cc(/C=C/C(=O)c2cc(F)ccc2O)c2c(c1)COCO2	inconclusive [inhibitor, partial curve]
